According to US5654398A, “Compositions and methods for inhibiting replication of human immunodeficiency virus-1” (priority 1993, dated 1997):
Like-named read-outs stand apart in the source and are kept apart here. Part of at least one peptide drawing is inferred or uncertain, most often the ends. Some compounds share one wording; it may come from a single statement. Starred links: 1 amine or outer side, 2 acyl side, 3 side chain; linkers in the order of their positions; H or OH if unused. Residues, ends and D or L forms follow the SMILES beside them. Suc = O=C(CCC(=O)[*:2])[*:1]

Tests used:
[1] = Circular dichroism, α-helix content; assay type: physicochemical; conditions: from CD ellipticity at 222 nm, 4° C., pH 7.5
Protocol: CD spectra were measured using an Aviv model 62DS spectropolarimeter. Samples were prepared in 10 mM potassium phosphate buffer, pH 7.5 and 100 mM KF, and temperature was maintained at 4° C. unless described otherwise. Spectra were recorded from 320 nm to 190 nm using a 1 cm pathlength cuvette and the signal was averaged for 10 sec. Scans were repeated five times and averaged. Peptide concentrations were typically 5-20 μM and ellipticity was calculated per amino acid residue.
(§1) FIG. 3C. Relationship between helix content of the Rev34-50 peptides and RNA-binding specificity. Apparent Kd s (the peptide concentration at which 50% of the RNA was shifted) were determined for wild-type (specific; Ksp) and mutant (nonspecific; Knonsp) IIB RNAs from the date in FIGS. 3A and 3B. Specificity, the ratio of specific to nonspecific apparent association constants (Ka s) is plotted against the helix content for each peptide, determined from the CD ellipticity at 222 nm (Chen et al., (1974) "Determination of the Helix and Beta Form of Proteins in Aqueous Solution by Circular Dichroism" Biochemistry 13:3350-3359 ) Peptide I: helix=0.1%; ksp =2000 nM; Knonsp =3000 nM. Peptide II: helix=3.9%; Ksp =300 nM; Knonsp =2000 nM. Peptide III: helix=10.9%; Ksp =100 nM; Knonsp =2000 nM. Peptide IV: helix=27.9%; Ksp =40 nM; Knonsp =2000 nM. Peptide V: helix=51.2%; Ksp =20 nM; Knonsp 1500 nM.

[2] = biological target: mutant (C46-G74) IIB RNA; assay type: binding, HIV-1
Protocol: (§2) Gel shift assays were performed at 4° C. unless described otherwise. Peptide and RNA were incubated together for 15 min on ice in 10 μl binding reactions containing 10 mM HEPES-KOH, pH 7.5, 100 mM KCl, 1 mM MgCl2, 0.5 mM EDTA, 1 mM dithithreitol, 50 μg/ml E. coli tRNA, and 10% glycerol. To determine relative binding affinities, 0.5 nM radiolabeled IIB RNA (or IIB mutant) was titrated with peptide. Peptide-RNA complexes were resolved in 10% polyacrylamide, 0.5x TBE gels that had been prerun for 1 hr and allowed to cool to 4° C. Gels were electrophoresed at 220 V for 3 hr at 4° C., dried, and autoradiographed.
as §1

[3] = biological target: wild-type RRE IIB RNA; assay type: binding, HIV-1; conditions: for Kd: peptide concentration at which 50% of the RNA was shifted, 4° C., read-out: Ksp (apparent Kd, wild-type IIB RNA); for Kd / specific RNA binding / discrimination between wild-type and mutant IIB RNAs (in words): in the presence of tRNA; for Specificity (ratio of specific to nonspecific apparent association constants): wild-type vs C46-G74 mutant IIB RNA, in the presence of competitor tRNA; for specific RNA binding / discrimination between wild-type and mutant IIB RNAs (in words): gel shift
Protocol: as §2, §1

[4] = peptide concentration at which 50% of the RNA was shifted, C46-G74 mutant, in the presence of tRNA, 4° C., read-out: Knonsp (apparent Kd, mutant IIB RNA)

Structure (SMILES) | % Helix (α-helix content) [1] | Kd [2, 4] | Kd [3] | Specificity (ratio of specific to nonspecific apparent association constants) [3] | specific RNA binding / discrimination between wild-type and mutant IIB RNAs (in words) [3] | nonspecific binding affinity (in words) ([2]; gel shift, C46-G74 mutant RNA) | Kd ([2]; mutant RNA, in the absence of competitor (data not shown), read-out: measured nonspecific Kd) | estimated specific Kd [3]
C[C@H](NC(=O)[C@H](CCCNC(=N)N)NC(=O)[C@H](CCCNC(=N)N)NC(=O)[C@H](CC(N)=O)NC(=O)[C@H](CCCNC(=N)N)NC(=O)[C@H](CCCNC(=N)N)NC(=O)[C@H](C)NC(=O)[C@H](CCC(N)=O)NC(=O)[C@H](CCCNC(=N)N)NC(=O)[C@@H](NC(=O)CCC(=O)O)[C@@H](C)O)C(=O)N[C@@H](CCCNC(=N)N)C(=O)N[C@@H](Cc1c[nH]c2ccccc12)C(=O)N[C@@H](CCCNC(=N)N)C(=O)N[C@@H](CCC(=O)O)C(=O)N[C@@H](CCCNC(=N)N)C(=O)N[C@@H](CCC(N)=O)C(=O)N[C@@H](CCCNC(=N)N)C(N)=O [43 R → A] (Suc-TRQARRNRRARWRERQR-NH2) | 26.4% | 1500 nM | 30 nM | 50 | – | – | – | –
C[C@H](NC(=O)[C@H](CCCNC(=N)N)NC(=O)[C@H](CCCNC(=N)N)NC(=O)[C@H](CCCNC(=N)N)NC(=O)[C@H](CC(N)=O)NC(=O)[C@H](CCCNC(=N)N)NC(=O)[C@H](CCCNC(=N)N)NC(=O)[C@H](C)NC(=O)[C@H](CCC(N)=O)NC(=O)[C@H](CCCNC(=N)N)NC(=O)[C@@H](NC(=O)CCC(=O)O)[C@@H](C)O)C(=O)N[C@@H](Cc1c[nH]c2ccccc12)C(=O)N[C@@H](CCCNC(=N)N)C(=O)N[C@@H](CCC(=O)O)C(=O)N[C@@H](CCCNC(=N)N)C(=O)N[C@@H](CCC(N)=O)C(=O)N[C@@H](CCCNC(=N)N)C(N)=O [44 R → A] (Suc-TRQARRNRRRAWRERQR-NH2) | 26.5% | 2000 nM | 900 nM | 2.5 | – | – | – | –
C[C@H](NC(=O)[C@H](CCCNC(=N)N)NC(=O)[C@H](CCCNC(=N)N)NC(=O)[C@H](CCCNC(=N)N)NC(=O)[C@H](CCCNC(=N)N)NC(=O)[C@H](CC(N)=O)NC(=O)[C@H](CCCNC(=N)N)NC(=O)[C@H](CCCNC(=N)N)NC(=O)[C@H](C)NC(=O)[C@H](CCC(N)=O)NC(=O)[C@H](CCCNC(=N)N)NC(=O)[C@@H](NC(=O)CCC(=O)O)[C@@H](C)O)C(=O)N[C@@H](CCCNC(=N)N)C(=O)N[C@@H](CCC(=O)O)C(=O)N[C@@H](CCCNC(=N)N)C(=O)N[C@@H](CCC(N)=O)C(=O)N[C@@H](CCCNC(=N)N)C(N)=O [45 W → A] (Suc-TRQARRNRRRRARERQR-NH2) | 20.3% | 2000 nM | 40 nM | 50 | – | – | – | –
C[C@H](NC(=O)[C@H](Cc1c[nH]c2ccccc12)NC(=O)[C@H](CCCNC(=N)N)NC(=O)[C@H](CCCNC(=N)N)NC(=O)[C@H](CCCNC(=N)N)NC(=O)[C@H](CCCNC(=N)N)NC(=O)[C@H](CC(N)=O)NC(=O)[C@H](CCCNC(=N)N)NC(=O)[C@H](CCCNC(=N)N)NC(=O)[C@H](C)NC(=O)[C@H](CCC(N)=O)NC(=O)[C@H](CCCNC(=N)N)NC(=O)[C@@H](NC(=O)CCC(=O)O)[C@@H](C)O)C(=O)N[C@@H](CCC(=O)O)C(=O)N[C@@H](CCCNC(=N)N)C(=O)N[C@@H](CCC(N)=O)C(=O)N[C@@H](CCCNC(=N)N)C(N)=O [46 R → A] (Suc-TRQARRNRRRRWAERQR-NH2) | 30.6% | 2000 nM | 300 nM | 7 | Smaller decreases in RNA-binding specificity | – | – | –
C[C@H](NC(=O)[C@H](CCCNC(=N)N)NC(=O)[C@H](Cc1c[nH]c2ccccc12)NC(=O)[C@H](CCCNC(=N)N)NC(=O)[C@H](CCCNC(=N)N)NC(=O)[C@H](CCCNC(=N)N)NC(=O)[C@H](CCCNC(=N)N)NC(=O)[C@H](CC(N)=O)NC(=O)[C@H](CCCNC(=N)N)NC(=O)[C@H](CCCNC(=N)N)NC(=O)[C@H](C)NC(=O)[C@H](CCC(N)=O)NC(=O)[C@H](CCCNC(=N)N)NC(=O)[C@@H](NC(=O)CCC(=O)O)[C@@H](C)O)C(=O)N[C@@H](CCCNC(=N)N)C(=O)N[C@@H](CCC(N)=O)C(=O)N[C@@H](CCCNC(=N)N)C(N)=O [47 E → A] (Suc-TRQARRNRRRRWRARQR-NH2) | 19.6% | 2000 nM | 50 nM | 40 | – | – | – | –
C[C@H](NC(=O)[C@H](CCC(=O)O)NC(=O)[C@H](CCCNC(=N)N)NC(=O)[C@H](Cc1c[nH]c2ccccc12)NC(=O)[C@H](CCCNC(=N)N)NC(=O)[C@H](CCCNC(=N)N)NC(=O)[C@H](CCCNC(=N)N)NC(=O)[C@H](CCCNC(=N)N)NC(=O)[C@H](CC(N)=O)NC(=O)[C@H](CCCNC(=N)N)NC(=O)[C@H](CCCNC(=N)N)NC(=O)[C@H](C)NC(=O)[C@H](CCC(N)=O)NC(=O)[C@H](CCCNC(=N)N)NC(=O)[C@@H](NC(=O)CCC(=O)O)[C@@H](C)O)C(=O)N[C@@H](CCC(N)=O)C(=O)N[C@@H](CCCNC(=N)N)C(N)=O [48 R → A] (Suc-TRQARRNRRRRWREAQR-NH2) | 23.2% | 2000 nM | 100 nM | 20 | Smaller decreases in RNA-binding specificity | – | – | –
C[C@H](NC(=O)[C@H](CCCNC(=N)N)NC(=O)[C@H](CCC(=O)O)NC(=O)[C@H](CCCNC(=N)N)NC(=O)[C@H](Cc1c[nH]c2ccccc12)NC(=O)[C@H](CCCNC(=N)N)NC(=O)[C@H](CCCNC(=N)N)NC(=O)[C@H](CCCNC(=N)N)NC(=O)[C@H](CCCNC(=N)N)NC(=O)[C@H](CC(N)=O)NC(=O)[C@H](CCCNC(=N)N)NC(=O)[C@H](CCCNC(=N)N)NC(=O)[C@H](C)NC(=O)[C@H](CCC(N)=O)NC(=O)[C@H](CCCNC(=N)N)NC(=O)[C@@H](NC(=O)CCC(=O)O)[C@@H](C)O)C(=O)N[C@@H](CCCNC(=N)N)C(N)=O [49 Q → A] (Suc-TRQARRNRRRRWRERAR-NH2) | 28.2% | 3000 nM | 40 nM | 75 | – | – | – | –
C[C@H](NC(=O)[C@H](CCC(N)=O)NC(=O)[C@H](CCCNC(=N)N)NC(=O)[C@H](CCC(=O)O)NC(=O)[C@H](CCCNC(=N)N)NC(=O)[C@H](Cc1c[nH]c2ccccc12)NC(=O)[C@H](CCCNC(=N)N)NC(=O)[C@H](CCCNC(=N)N)NC(=O)[C@H](CCCNC(=N)N)NC(=O)[C@H](CCCNC(=N)N)NC(=O)[C@H](CC(N)=O)NC(=O)[C@H](CCCNC(=N)N)NC(=O)[C@H](CCCNC(=N)N)NC(=O)[C@H](C)NC(=O)[C@H](CCC(N)=O)NC(=O)[C@H](CCCNC(=N)N)NC(=O)[C@@H](NC(=O)CCC(=O)O)[C@@H](C)O)C(N)=O [50 R → A] (Suc-TRQARRNRRRRWRERQA-NH2) | 28.6% | 2000 nM | 150 nM | 13 | Smaller decreases in RNA-binding specificity | – | – | –
C[C@H](NC(=O)[C@H](C)NC(=O)[C@H](C)NC(=O)[C@H](CCCNC(=N)N)NC(=O)[C@H](CCC(N)=O)NC(=O)[C@H](CCCNC(=N)N)NC(=O)[C@H](CCC(=O)O)NC(=O)[C@H](CCCNC(=N)N)NC(=O)[C@H](Cc1c[nH]c2ccccc12)NC(=O)[C@H](CCCNC(=N)N)NC(=O)[C@H](CCCNC(=N)N)NC(=O)[C@H](CCCNC(=N)N)NC(=O)[C@H](CCCNC(=N)N)NC(=O)[C@H](CC(N)=O)NC(=O)[C@H](CCCNC(=N)N)NC(=O)[C@H](CCCNC(=N)N)NC(=O)[C@H](C)NC(=O)[C@H](CCC(N)=O)NC(=O)[C@H](CCCNC(=N)N)NC(=O)[C@@H](NC(=O)CCC(=O)O)[C@@H](C)O)C(=O)N[C@@H](C)C(=O)N[C@@H](CCCNC(=N)N)C(N)=O [Peptide V, suc-Rev34-50 -AAAAR-am] (Suc-TRQARRNRRRRWRERQRAAAAR-NH2) | 51.2% | 1500 nM | 20 nM | 75 | – | slight increase in nonspecific affinity | 1 ± 0.2 nM | 0.013 nM
